In PMC5437018:
Results are given in words; binding and its absence hold for the method and conditions named. Binding seen in cells or lysates may run through a third protein. Some results given as binding are weak or reduced against the parent protein; the word gives no strength. For some assays here: Where a sequence is shown, tags or fusion partners need not be part of it.

By UniProt entry, the sequences of proteins in these tests, tags left out.
UniProt P62137: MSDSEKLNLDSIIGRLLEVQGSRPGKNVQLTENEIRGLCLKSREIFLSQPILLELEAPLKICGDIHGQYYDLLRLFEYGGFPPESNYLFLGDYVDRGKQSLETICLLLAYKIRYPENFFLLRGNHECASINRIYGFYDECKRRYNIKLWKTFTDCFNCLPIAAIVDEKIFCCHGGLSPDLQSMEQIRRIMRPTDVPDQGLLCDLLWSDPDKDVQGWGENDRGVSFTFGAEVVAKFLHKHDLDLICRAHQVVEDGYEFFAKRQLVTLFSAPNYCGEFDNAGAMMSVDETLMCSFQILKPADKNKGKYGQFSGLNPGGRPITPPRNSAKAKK
UniProt P62136: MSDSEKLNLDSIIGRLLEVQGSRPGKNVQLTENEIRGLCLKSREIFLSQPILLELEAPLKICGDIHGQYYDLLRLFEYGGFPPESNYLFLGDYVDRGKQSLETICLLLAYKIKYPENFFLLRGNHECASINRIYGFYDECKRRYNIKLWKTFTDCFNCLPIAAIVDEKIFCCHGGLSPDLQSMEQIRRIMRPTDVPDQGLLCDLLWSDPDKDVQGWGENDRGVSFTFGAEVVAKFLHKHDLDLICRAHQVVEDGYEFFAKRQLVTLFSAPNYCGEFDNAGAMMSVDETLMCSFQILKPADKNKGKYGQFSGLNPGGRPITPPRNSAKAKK

Key:
[1] = target: Rif1^FLAG-HA2 (endogenous mouse Rif1 carrying a knock-in FLAG-HA2 tag) (mouse) (UniProt Q6PR54); assay: co-IP; immunoprecipitation of Rif1-associated proteins from Rif1^FH/+ ESCs, immunoblotting with anti-PP1 antibody
[2] = target: T1, GST-Rif1 CRI (2093–2190) (mouse) (UniProt Q6PR54); assay: pull-down; GST-Rif1 fragments on Glutathione Sepharose beads incubated overnight at 4 °C with E. coli crude lysate containing hexahistidine-tagged PP1; washed 4 times with 50 mM phosphate pH 7.4, 500 mM NaCl, 5 mM DTT; blot with anti-hexahistidine antibody; only the target purified
T1 sequence: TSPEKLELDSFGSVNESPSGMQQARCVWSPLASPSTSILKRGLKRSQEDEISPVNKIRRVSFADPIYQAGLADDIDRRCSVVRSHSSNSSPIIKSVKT

[3] = target: T2, GST-Rif1 CRI+II (2090–2316) (mouse) (UniProt Q6PR54); assay: as above
T2 sequence: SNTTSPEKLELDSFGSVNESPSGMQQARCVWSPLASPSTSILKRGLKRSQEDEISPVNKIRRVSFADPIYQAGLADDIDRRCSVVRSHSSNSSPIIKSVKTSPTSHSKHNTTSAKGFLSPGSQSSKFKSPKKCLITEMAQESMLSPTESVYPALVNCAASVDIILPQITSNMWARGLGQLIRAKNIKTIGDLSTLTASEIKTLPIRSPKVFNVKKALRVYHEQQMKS

[4] = target: T3, GST-Rif1 CRI+II+III (2093–2418) (mouse) (UniProt Q6PR54); assay: as above
T3 sequence: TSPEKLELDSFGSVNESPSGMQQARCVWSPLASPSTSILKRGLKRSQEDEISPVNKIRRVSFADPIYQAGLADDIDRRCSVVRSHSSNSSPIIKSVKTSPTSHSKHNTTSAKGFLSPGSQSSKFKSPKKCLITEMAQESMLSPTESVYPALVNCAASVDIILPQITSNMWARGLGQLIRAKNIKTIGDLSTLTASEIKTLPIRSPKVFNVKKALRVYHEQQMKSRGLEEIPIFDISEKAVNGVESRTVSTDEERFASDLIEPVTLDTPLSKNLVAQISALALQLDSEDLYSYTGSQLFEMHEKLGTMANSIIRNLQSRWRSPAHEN

[5] = target: T4, GST-Rif1 CRII (2226–2340) (mouse) (UniProt Q6PR54); assay: as above
T4 sequence: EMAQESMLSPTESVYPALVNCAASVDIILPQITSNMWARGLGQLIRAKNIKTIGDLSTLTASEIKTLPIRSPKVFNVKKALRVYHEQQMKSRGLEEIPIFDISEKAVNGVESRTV

[6] = target: T5, GST-Rif1 CRII+III (2226–2418) (mouse) (UniProt Q6PR54); assay: as above
T5 sequence: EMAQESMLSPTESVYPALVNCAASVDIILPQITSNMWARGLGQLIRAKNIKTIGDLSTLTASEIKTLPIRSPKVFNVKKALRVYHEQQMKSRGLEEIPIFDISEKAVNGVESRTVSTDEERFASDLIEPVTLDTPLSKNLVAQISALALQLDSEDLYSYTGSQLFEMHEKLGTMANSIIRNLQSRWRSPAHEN

[7] = target: T6, GST-Rif1 CRIII (2340–2418) (mouse) (UniProt Q6PR54); assay: as above
T6 sequence: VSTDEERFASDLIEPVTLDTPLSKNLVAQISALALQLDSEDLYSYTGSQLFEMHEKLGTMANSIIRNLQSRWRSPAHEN

[8] = target: T7, GST-tagged Rif1 HEAT repeat region (residues 1–966) (mouse) (UniProt Q6PR54); assay: as above
T7 sequence: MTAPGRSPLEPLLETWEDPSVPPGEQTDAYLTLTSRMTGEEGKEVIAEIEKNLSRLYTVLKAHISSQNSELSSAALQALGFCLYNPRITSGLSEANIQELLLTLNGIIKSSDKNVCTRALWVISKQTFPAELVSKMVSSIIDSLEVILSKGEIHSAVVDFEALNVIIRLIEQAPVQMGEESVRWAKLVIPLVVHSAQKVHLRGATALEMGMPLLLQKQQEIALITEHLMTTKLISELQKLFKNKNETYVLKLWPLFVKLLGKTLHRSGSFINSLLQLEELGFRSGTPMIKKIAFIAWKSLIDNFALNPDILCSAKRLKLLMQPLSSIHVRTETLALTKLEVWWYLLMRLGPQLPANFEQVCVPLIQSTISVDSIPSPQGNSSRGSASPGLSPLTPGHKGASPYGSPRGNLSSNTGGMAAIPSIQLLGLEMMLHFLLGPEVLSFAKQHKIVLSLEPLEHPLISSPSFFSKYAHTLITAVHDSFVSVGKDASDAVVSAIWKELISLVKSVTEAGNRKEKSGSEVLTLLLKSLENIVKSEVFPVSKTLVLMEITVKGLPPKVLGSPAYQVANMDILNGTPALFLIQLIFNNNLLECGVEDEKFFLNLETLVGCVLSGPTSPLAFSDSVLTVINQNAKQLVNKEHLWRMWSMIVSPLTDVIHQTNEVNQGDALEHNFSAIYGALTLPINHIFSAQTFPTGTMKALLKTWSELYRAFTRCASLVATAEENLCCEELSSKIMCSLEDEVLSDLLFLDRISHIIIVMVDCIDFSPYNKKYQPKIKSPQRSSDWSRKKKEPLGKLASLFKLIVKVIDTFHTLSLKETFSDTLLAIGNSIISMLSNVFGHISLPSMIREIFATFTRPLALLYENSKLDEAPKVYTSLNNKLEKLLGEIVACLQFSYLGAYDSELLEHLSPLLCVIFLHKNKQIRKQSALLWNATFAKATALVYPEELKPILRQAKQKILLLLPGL

binding [1]	binding [2]	binding [3]	binding [4]	binding [5]	binding [6]	binding [7]	binding [8]	Substance
binds	–	–	–	–	–	–	–	Protein phosphatase 1 subunit A (endogenous) (from UniProt P62137 1-330) (enzyme)
–	binds	binds	binds	no binding	no binding	no binding	no binding	Recombinant hexahistidine-tagged PP1 (α-isoform, residues 1–330), in E. coli crude lysate (from UniProt P62136 1-330) (enzyme)
